In all, about 310,000 compounds went through this assay and about 14,000 (4.5%) showed an effect of 50% or more. The effect is printed as a negative number. Some of the results follow.
Each compound was assayed against human ether-à-go-go-related gene (hERG) potassium channel (human, UniProt Q12809) (assay: primary screen, population patch clamp on CHO cells stably expressing hERG).
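Also: peak tail current of the secondary pulse compared with the same well before compound.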

Chain of human ether-à-go-go-related gene (hERG) potassium channel (Q12809 whole entry, looked up): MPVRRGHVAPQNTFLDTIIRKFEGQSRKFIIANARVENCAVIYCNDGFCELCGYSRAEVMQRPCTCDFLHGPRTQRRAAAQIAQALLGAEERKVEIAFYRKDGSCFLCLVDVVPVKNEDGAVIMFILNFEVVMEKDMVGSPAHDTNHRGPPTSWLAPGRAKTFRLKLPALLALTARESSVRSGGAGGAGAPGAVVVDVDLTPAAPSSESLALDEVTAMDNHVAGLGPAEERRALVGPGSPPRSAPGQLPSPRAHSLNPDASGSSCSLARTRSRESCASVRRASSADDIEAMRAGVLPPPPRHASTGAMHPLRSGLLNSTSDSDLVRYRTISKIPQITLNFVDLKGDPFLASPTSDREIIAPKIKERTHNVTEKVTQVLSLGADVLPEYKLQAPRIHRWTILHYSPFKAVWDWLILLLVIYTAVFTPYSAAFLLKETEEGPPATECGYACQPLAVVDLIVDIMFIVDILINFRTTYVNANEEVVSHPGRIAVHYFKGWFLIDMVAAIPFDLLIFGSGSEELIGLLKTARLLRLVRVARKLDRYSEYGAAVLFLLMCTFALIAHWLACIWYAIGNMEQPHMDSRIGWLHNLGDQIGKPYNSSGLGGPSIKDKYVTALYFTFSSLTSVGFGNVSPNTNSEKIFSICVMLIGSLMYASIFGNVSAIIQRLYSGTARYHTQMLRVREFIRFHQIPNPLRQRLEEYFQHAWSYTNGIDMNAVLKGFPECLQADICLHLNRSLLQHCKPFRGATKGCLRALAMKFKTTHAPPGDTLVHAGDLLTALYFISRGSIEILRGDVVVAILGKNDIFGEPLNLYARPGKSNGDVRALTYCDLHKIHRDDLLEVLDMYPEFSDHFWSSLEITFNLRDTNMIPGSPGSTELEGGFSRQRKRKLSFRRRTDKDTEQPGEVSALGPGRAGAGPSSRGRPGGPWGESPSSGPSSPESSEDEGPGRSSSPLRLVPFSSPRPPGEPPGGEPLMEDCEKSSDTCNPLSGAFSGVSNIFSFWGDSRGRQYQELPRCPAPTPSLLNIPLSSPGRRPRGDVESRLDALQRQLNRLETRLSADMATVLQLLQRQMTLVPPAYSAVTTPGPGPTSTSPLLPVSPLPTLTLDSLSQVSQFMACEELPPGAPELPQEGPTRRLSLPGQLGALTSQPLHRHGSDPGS

Compared with CCOc1cc(C(C#N)N2CCCCC2)ccc1OC (centres unmarked), CCOC(=O)N1CCN(CC(=O)Nc2ccc(F)c(F)c2F)CC1 is lower in “hERG current change (%, negative = inhibition) at 10uM” value: 9.09% for the first, 7.7% for the second.

Going from CN(C(=O)c1ccccc1Cl)c1ccccc1 to COc1ccccc1CC(=O)Nc1ccccc1C(=O)O, the “hERG current change (%, negative = inhibition) at 10uM” value rises from -4.32% to 16.7%.

Going from CCN(C(=O)COC(=O)CNC(=O)c1ccc2ccccc2c1)C1CCS(=O)(=O)C1 (centres unmarked) to CC(C)N1CCc2c(sc(NC(=O)CCc3ccccc3)c2C(N)=O)C1.Cl, the “hERG current change (%, negative = inhibition) at 10uM” value falls from -8.27% to -57.2%.

Compared with CC1CCCCC1NC(=O)c1cn(C)c2ccc(S(=O)(=O)N3CCOCC3)cc2c1=O (centres unmarked), CCN(c1ccccc1)S(=O)(=O)c1ccc2c(c1)N(C(C)=O)CCS2 is higher in “hERG current change (%, negative = inhibition) at 10uM” value: -19.3% for the first, -11.6% for the second.

Compared with CC(=O)Nc1ccc(N/C=C/C(=O)c2ccccc2)cc1, O=C(N/N=C/c1ccccn1)c1ccccc1 is lower in “hERG current change (%, negative = inhibition) at 10uM” value: 9.1% for the first, 2.75% for the second.

First: Cc1ccc(C)c(NC(=O)CS(=O)(=O)c2cccc3nsnc23)c1
Second: Cc1ccc(S(=O)(=O)CCc2nc3ccccc3[nH]2)cc1
The “hERG current change (%, negative = inhibition) at 10uM” value of the first is higher: -12.8% for the first, -17.6% for the second.

Going from CC(C)(C)c1ccc(C(=O)c2cn[nH]c2-c2ccccc2O)cc1 to COc1ccccc1C(=O)N/C(=N/c1nc(C)cc(C)n1)Nc1ccccc1, the “hERG current change (%, negative = inhibition) at 10uM” value falls from 9.39% to -1.09%.

Going from O=C(O)Cn1c(CCS(=O)(=O)c2ccc(Br)cc2)nc2ccccc21 to CCc1ccc(S(=O)(=O)Nc2ccc(C)c(NS(C)(=O)=O)c2)cc1, the “hERG current change (%, negative = inhibition) at 10uM” value falls from 12% to 0.781%.

Going from CCOC(=O)N1CCN(c2c(NCCCN(CC)CC)c(=O)c2=O)CC1 to CSc1nsc(SCC(=O)Nc2cccc(C(C)=O)c2)n1, the “hERG current change (%, negative = inhibition) at 10uM” value rises from 1.23% to 11.7%.

Compared with COc1ccc(C(OCC(O)CNC(C)c2ccccc2)c2ccc(OC)cc2)cc1 (centres unmarked), O=c1nc(Nc2ccc(OCc3ccccc3)cc2)sc2ncccc12 is higher in “hERG current change (%, negative = inhibition) at 10uM” value: -52.4% for the first, 12.6% for the second.

First: Cn1c(O)c(C=Nc2ccc(F)cc2)c(=O)[nH]c1=O
Second: CC(=O)Nc1ccc(S(=O)(=O)NC2(C(F)(F)F)NC(=O)N(c3ccc(Cl)cc3)C2=O)cc1 (centres unmarked)
The “hERG current change (%, negative = inhibition) at 10uM” value of the first is lower: 10.2% for the first, 17.5% for the second.

First: CSc1ccc(C2Nc3cccc4cccc(c34)N2)cc1
Second: CN(C(=O)c1cc2n(n1)C(C(F)(F)F)CC(c1ccco1)N2)c1ccccc1 (centres unmarked)
The “hERG current change (%, negative = inhibition) at 10uM” value of the first is higher: 11.2% for the first, 0.954% for the second.

Going from O=C1CN(c2ccccc2)C(=O)N1 to O=C(Cn1nnc(-c2ccccc2)n1)OCc1ccccc1, the “hERG current change (%, negative = inhibition) at 10uM” value falls from 16% to 15.6%.
